Results on 44 molecules are retold here after paper PMC4336329 (PLoS ONE, 2015).

Each structure is given as a SMILES string. Screen size: about 310,000 compounds; about 14,000 (4.5%) showed an effect of 50% or more. Effects have a minus sign here. The list shows a part of the results.
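Also: peak tail current of the secondary pulse compared with the same well before compound.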

This test deals with human ether-à-go-go-related gene (hERG) potassium channel (human, UniProt Q12809). Description: primary screen, population patch clamp on CHO cells stably expressing hERG.
human ether-à-go-go-related gene (hERG) potassium channel, sequence (Q12809 whole entry, looked up): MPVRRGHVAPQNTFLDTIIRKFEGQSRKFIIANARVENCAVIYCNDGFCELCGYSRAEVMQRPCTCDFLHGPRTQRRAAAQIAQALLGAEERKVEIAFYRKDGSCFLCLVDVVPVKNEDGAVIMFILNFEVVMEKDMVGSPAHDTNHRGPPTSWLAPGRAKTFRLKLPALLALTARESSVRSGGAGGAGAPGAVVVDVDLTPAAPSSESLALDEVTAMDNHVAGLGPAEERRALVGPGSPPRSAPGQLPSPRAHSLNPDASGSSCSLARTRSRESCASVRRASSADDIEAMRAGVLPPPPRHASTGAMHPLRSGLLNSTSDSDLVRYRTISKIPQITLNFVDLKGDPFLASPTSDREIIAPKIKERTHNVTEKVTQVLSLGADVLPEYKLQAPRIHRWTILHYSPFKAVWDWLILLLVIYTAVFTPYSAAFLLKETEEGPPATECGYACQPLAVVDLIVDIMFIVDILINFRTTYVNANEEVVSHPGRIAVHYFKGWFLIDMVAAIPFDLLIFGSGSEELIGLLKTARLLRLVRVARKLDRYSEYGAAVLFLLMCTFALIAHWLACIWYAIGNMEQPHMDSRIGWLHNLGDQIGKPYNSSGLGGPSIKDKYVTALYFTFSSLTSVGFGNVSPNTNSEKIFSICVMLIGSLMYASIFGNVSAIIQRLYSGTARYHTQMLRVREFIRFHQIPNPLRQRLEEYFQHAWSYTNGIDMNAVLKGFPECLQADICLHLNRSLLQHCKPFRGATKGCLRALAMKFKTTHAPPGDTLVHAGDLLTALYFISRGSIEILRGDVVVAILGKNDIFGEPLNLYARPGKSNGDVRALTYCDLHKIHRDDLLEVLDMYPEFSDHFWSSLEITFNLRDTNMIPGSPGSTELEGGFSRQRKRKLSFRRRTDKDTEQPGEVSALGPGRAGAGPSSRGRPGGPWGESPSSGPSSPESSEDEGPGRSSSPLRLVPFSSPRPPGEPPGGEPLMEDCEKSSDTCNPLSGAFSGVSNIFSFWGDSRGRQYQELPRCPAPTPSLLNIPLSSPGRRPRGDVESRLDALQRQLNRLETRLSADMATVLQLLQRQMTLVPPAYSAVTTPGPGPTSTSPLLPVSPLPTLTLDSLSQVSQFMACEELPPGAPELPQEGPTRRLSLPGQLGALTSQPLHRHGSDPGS
As to `COc1ccc2c(c1)c(=O)c(Br)c(C)n2Cc1ccccc1`, the “hERG current change (%, negative = inhibition) at 10uM” value is given as -9.03%.
The value for `COc1ccc(-n2nc([N+](=O)[O-])c(=NCCc3ccccc3)n2O)cc1` was -6.24%; that for `CCN(CC)CCN1C(=O)C2C(C(=O)Nc3cc(C)cc(C)c3)C3C=CC2(O3)C1C(=O)NC1CCCCC1` (centres unmarked) was 4.15%; that for `CC(NC(=O)CSc1nc2ccccc2n1CCC#N)c1ccc(F)cc1` (centres unmarked) was -5.77%.
`Cc1[nH]c2ccccc2c1C1=CCNCC1`: the “hERG current change (%, negative = inhibition) at 10uM” value was found to be 2.58%.
For `CCOC(=O)C1=C(C)Nc2ccccc2N=C1NC(=O)C(c1ccccc1)c1ccccc1` the value was 4.69%; for `COc1ccc(C(=O)C2CCCN(C(=O)/C=C/c3cnc[nH]3)C2)c(C)c1` (centres unmarked), 8%; for `CCOc1cc(CNCCc2c[nH]c3ccccc23)cc(Cl)c1OCC`, -14%.
For `Cc1csc(SCC(=O)N2CCCC2)n1` the value was 8.96%.
For `CCCCC[C@H](O)/C=C/[C@@H]1[C@@H](C/C=C\CCCC(=O)O)[C@H]2CO[C@@H]1C2` the value was 10.4%; for `CC(C)(C)OC(=O)N1CCC(c2c(C(=O)O)cnn2-c2ccccc2Cl)CC1`, -5.43%.
`COc1cc(OC)c2c(-c3ccccc3)cc(=O)oc2c1C(CCN1CCCC(C)C1)c1ccc2c(c1)OCO2` (centres unmarked): the “hERG current change (%, negative = inhibition) at 10uM” value was -48.8%.
As to `Cc1ccc(S(=O)(=O)N(C)Cc2ccc(-c3nnc4n3CCC4)cc2)cc1`, the “hERG current change (%, negative = inhibition) at 10uM” value was -20.4%.
With `CC(C#Cc1ccc2c(c1)COc1c3ccccc3nn1-2)OC(C)(C)C` (centres unmarked), the “hERG current change (%, negative = inhibition) at 10uM” value is 15.8%.
The value for `COCc1nnc(NC(=O)CCN2C(=O)c3ccccc3C2=O)s1` was 6.9%; that for `O=C(O)c1ccc2c(c1Nc1ccccc1)C(=O)c1ccccc1C2=O` was 24.9%; that for `CC(=O)c1cc(CCC(=O)NC2CCCCCC2)oc1C` was 8.28%.
For the molecule `COc1ccc(OC)c(N(CC(=O)NCc2ccccn2)S(C)(=O)=O)c1`, the “hERG current change (%, negative = inhibition) at 10uM” value is given as -6.87%.
The value for `Cl.OC(COCc1ccc(Cl)cc1)CN1CCc2ccccc2C1` (centres unmarked) was -70.4%; that for `COc1ccc(-n2cc(CNCCc3ncc(C)[nH]3)c(-c3ccccc3Cl)n2)cc1` was -63.6%; that for `COc1ccccc1C(=O)NCCOc1ccc(C)c(C)c1` was 18.5%.
For `CC1CCN(c2[nH]c(=S)c(C#N)c3c2CCCC3)CC1`, the “hERG current change (%, negative = inhibition) at 10uM” value is recorded as 12.9%.
For `O=C(NNC(=O)c1ccc(Cl)cc1Cl)c1cnccn1` the value was -6.19%; for `Cc1ccc(SC(C)C(=O)NC(N)=O)c(C)c1` (centres unmarked), 17%; for `CC(C)N(C(=O)COC(=O)c1cccc(C(=O)OCC(=O)N(C(C)C)C(C)C)n1)C(C)C`, 12.5%.
Take `Cc1nc2ccccc2n1CCc1nc2c3ccccc3nc(=S)n2[nH]1`: the “hERG current change (%, negative = inhibition) at 10uM” value worked out at 12.4%.
For `O=C(NCCCN1CCN(CCCNC(=O)c2ccccc2F)CC1)c1ccccc1F`, the “hERG current change (%, negative = inhibition) at 10uM” value was -53%.
The value for `CCCN1CCC(N2CCCC(C(=O)O)C2)CC1.Cl` (centres unmarked) was 17.8%; that for `CCOC(=O)CC1CCCCN1Cc1nc(-c2ccc(F)c(OC)c2)oc1C` (centres unmarked) was -65.5%.
Consider `Cc1ccc(NC(=O)C2CCCC2)cc1S(=O)(=O)N1CCOCC1`, for which the “hERG current change (%, negative = inhibition) at 10uM” value was -12.4%.
For the molecule `CCC(Sc1ncccc1C(=O)O)C(=O)N1CCOCC1` (centres unmarked), the “hERG current change (%, negative = inhibition) at 10uM” value is listed as -1.88%.
For the molecule `CN(C)CCNC(=O)c1cc2sc3ccccc3c2s1.Cl`, the “hERG current change (%, negative = inhibition) at 10uM” value is -31.5%.
For `CC1CN(C(=O)CCC(=O)N2CCC3(CC2)OCCO3)c2cc(Cl)ccc2O1` (centres unmarked), the “hERG current change (%, negative = inhibition) at 10uM” value is listed as -4.38%.
The value for `C=CCN1C=C2C(=O)C(C)(OC(=O)CCC(=O)OC)C(=O)C(Br)=C2C=C1c1ccc(OC)cc1` (centres unmarked) was 4.2%; that for `CCC(=O)NCc1ccc(-c2nc3ncccc3o2)cc1` was 13%.
For the molecule `CCN1CCCC1Cn1cnc2c([nH]c3cc(OC)ccc32)c1=O` (centres unmarked), the “hERG current change (%, negative = inhibition) at 10uM” value was -63.8%.
For the molecule `COCc1cc(CN(C)C(=O)c2oc3c(F)cccc3c2C)[nH]n1`, the “hERG current change (%, negative = inhibition) at 10uM” value is 8.21%.
As for `O=C(CN1CCN(C(c2ccccc2)c2ccccc2)CC1)N1N=CCC1c1ccccc1` (centres unmarked), the “hERG current change (%, negative = inhibition) at 10uM” value is -50.1%.
For `CCn1c(Cc2ccccc2)nnc1SCC(=O)Nc1nnc(-c2ccccc2)s1` the value was 1.64%; for `COC(=O)CN(C(=S)Nc1ccccc1)C1CC(=O)N(c2ccc(OC)cc2)C1=O` (centres unmarked), -6.5%; for `N#CCCn1cc(C=C2C(=O)NC(=O)NC2=O)c(-c2ccccc2)n1`, 25.2%.
As to `O=S(=O)(NC1CCCc2ccccc21)c1cnc[nH]1` (centres unmarked), the “hERG current change (%, negative = inhibition) at 10uM” value is 0.154%.
As to `COc1ccc(Cc2nnc(NC(=O)CSc3ccc(C)cc3)s2)cc1OC`, the “hERG current change (%, negative = inhibition) at 10uM” value was found to be 5.26%.
`CC(C)(Oc1ccc(Cl)cc1)C(=O)Nc1c2c(nn1C(C)(C)C)CS(=O)(=O)C2`: the “hERG current change (%, negative = inhibition) at 10uM” value is listed as -48.3%.
